Source: patent US20230405119A1 (CITY OF HOPE, published 2023)

T1: immobilized IL13Rα2 (UniProt Q14627 27-343, limits assumed)
T1 construct: also called IL13Ra2
T1 sequence (looked up): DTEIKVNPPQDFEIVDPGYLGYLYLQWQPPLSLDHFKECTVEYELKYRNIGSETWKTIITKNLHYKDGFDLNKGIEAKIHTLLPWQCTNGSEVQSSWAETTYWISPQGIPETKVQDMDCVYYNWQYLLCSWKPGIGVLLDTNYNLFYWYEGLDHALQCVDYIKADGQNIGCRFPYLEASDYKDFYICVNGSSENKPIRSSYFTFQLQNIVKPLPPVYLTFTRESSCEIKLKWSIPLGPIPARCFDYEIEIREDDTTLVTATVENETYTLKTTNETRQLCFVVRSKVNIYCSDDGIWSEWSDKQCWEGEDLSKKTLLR

T2: immobilized recombinant IL13Rα1 (UniProt P78552 22-343, limits assumed)
T2 construct: also called IL13Ra1
T2 sequence (looked up): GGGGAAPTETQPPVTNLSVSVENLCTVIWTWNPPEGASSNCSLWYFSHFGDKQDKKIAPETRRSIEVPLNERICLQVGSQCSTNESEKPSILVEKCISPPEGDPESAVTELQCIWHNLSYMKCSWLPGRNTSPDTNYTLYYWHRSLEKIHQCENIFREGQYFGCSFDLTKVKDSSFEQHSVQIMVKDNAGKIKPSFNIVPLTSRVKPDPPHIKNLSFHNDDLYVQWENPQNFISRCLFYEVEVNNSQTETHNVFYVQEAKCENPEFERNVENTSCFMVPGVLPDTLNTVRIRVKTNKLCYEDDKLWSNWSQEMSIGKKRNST

B1: wild-type IL13 (ligand)
chain: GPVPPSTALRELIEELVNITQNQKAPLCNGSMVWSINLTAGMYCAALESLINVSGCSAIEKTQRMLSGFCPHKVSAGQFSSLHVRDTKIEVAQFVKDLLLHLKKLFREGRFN
notes: the display scaffold is not described; also called WT; WT IL13
B2: IL13 E11Y mutant (ligand)
chain: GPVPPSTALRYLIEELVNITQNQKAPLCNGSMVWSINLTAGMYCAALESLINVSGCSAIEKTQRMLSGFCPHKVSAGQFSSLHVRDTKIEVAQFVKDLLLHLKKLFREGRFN
notes: Previously known mutant; display scaffold not described
B3: IL13 variant E11R (ligand)
chain: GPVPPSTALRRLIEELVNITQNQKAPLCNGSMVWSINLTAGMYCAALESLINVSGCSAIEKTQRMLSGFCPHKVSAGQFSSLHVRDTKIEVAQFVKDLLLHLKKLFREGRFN
notes: display scaffold not described
B4: IL13 variant E90L (ligand)
chain: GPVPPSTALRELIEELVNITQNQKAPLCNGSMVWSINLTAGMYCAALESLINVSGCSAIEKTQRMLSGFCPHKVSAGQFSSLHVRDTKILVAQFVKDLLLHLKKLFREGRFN
notes: as for B3
B5: IL13 variant R107K (ligand)
chain: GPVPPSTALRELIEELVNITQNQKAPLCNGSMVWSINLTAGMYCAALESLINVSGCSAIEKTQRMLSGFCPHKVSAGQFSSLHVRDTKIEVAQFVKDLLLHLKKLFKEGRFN
notes: as for B3

molecular target: T1, immobilized IL13Rα2; assay: yeast-displayed IL13; surface plasmon resonance with immobilized recombinant receptor, as the filing words it
From the text: (§1) In an effort to identify IL13 variants with increased selectivity for binding IL13Rα2 relative to IL13Rα1. To assess receptor binding various mutants were compared to wild-type IL13 ([…] […]; SEQ ID NO: 1) and the previously known […] E11Y mutant ([…] […]; SEQ ID NO: 69). […] Surface plasmon resonance with immobilized recombinant IL13Rα1 and immobilized IL13Rα2 was used to assess binding affinity. As expected, WT bound strongly to both IL13Rα1 and IL13Rα2.

| Binder | Kd |
| --- | --- |
| B1 | 18 nM |
| B2 | 19 nM |
| B3 | 15 nM |
| B4 | 27 nM |
| B5 | 27 nM |

molecular target: T2, immobilized recombinant IL13Rα1; assay: as above
From the text: as §1

| Binder | Kd |
| --- | --- |
| B1 | 69 nM |
| B3 | 98 nM |
| B5 | 240 nM |
